pIC50: −log10 of the molar value. The IC50 comes from the fitted curve, where viability falls to half of the control; a fit beyond the top or the lowest dose is shown as a bound at that dose. AUC sums up the same curve from the lowest dose to the 256-fold higher top dose; it is 1 without any effect and falls as sensitivity rises. For part of these data: The top dose, if marked as inferred, comes from the curve model; the source does not state it. For part of these data: Where an entry number is given, a second screen of the drug exists; the two often differ.
How the values were obtained:
Experiment in all cases: Viability of human cancer cell lines after 72 h of drug (GDSC screen)
GDC0941 = compound: CS(=O)(=O)N1CCN(Cc2cc3nc(-c4cccc5[nH]ncc45)nc(N4CCOCC4)c3s2)CC1 [GDC0941]; settings: top dose 4 µM; screen: GDSC drug entry 1527; top dose inferred
Experimental: (§1)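 Human cancer cell lines in 384-well plates, medium with 10% serum, drug for 72 h over a 256-fold dose range (nine 2-fold or five 4-fold steps up to the top dose). Adherent lines were fixed and stained with the nucleic acid dye Syto60, suspension lines read with resazurin; signal relative to control wells, capped at 0 and 100%. One two-parameter sigmoid per drug and line, fitted in a mixed model over all curves with the slope shared within a line.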

CEP-701 = compound: C[C@]12O[C@H](C[C@]1(O)CO)n1c3ccccc3c3c4c(c5c6ccccc6n2c5c31)CNC4=O [CEP-701]; settings: top dose 2 µM; top dose inferred
Experimental: as §1

AR-42 = compound: CC(C)[C@H](C(=O)Nc1ccc(C(=O)NO)cc1)c1ccccc1 [AR-42]; settings: top dose 5.12 µM; top dose inferred
Experimental: as §1

SB 216763 = compound: Cn1cc(C2=C(c3ccc(Cl)cc3Cl)C(=O)NC2=O)c2ccccc21 [SB 216763]; settings: top dose 10 µM; top dose inferred
Experimental: as §1

Pazopanib = compound: Cc1ccc(Nc2nccc(N(C)c3ccc4c(C)n(C)nc4c3)n2)cc1S(N)(=O)=O [Pazopanib]; settings: top dose 8 µM
Experimental: as §1

MG-132 = compound: CC(C)C[C@@H](C=O)NC(=O)[C@H](CC(C)C)NC(=O)[C@H](CC(C)C)NC(=O)OCc1ccccc1 [MG-132]; settings: top dose 1 µM
Experimental: as §1

Cell Line | AUC (GDC0941) | pIC50 (GDC0941) | AUC (CEP-701) | pIC50 (CEP-701) | AUC (AR-42) | pIC50 (AR-42) | AUC (SB 216763) | pIC50 (SB 216763) | AUC (Pazopanib) | pIC50 (Pazopanib) | AUC (MG-132) | pIC50 (MG-132)
SK-UT-1 (soft tissue, adherent) | 0.715 | 6.02 | 0.667 | 6.46 | 0.969 | < 5.29 | 0.986 | < 5.00 | 0.989 | < 5.10 | 0.5 | 7.20
ES-2 (ovary, adherent) | 0.99 | < 5.40 | 0.539 | 6.80 | 0.344 | 6.90 | 0.991 | < 5.00 | 0.972 | < 5.10 | 0.818 | 6.32
LC4-1 (lymphoblastic leukaemia, suspension) | 0.941 | < 5.40 | 0.874 | < 5.70 | 0.332 | 6.99 | 0.985 | < 5.00 | 0.93 | < 5.10 | 0.779 | 6.34
EW-11 (Ewing sarcoma, adherent) | 0.533 | 6.50 | 0.506 | 6.88 | 0.415 | 6.76 | 0.969 | < 5.00 | 0.952 | < 5.10 | 0.859 | < 6.00
JURL-MK1 (chronic myeloid leukaemia, suspension) | 0.942 | < 5.40 | 0.496 | 6.91 | 0.426 | 6.70 | 0.987 | < 5.00 | 0.96 | < 5.10 | 0.889 | < 6.00
HUTU-80 (digestive system, adherent) | 0.91 | 5.40 | 0.476 | 6.96 | 0.367 | 6.83 | 0.991 | < 5.00 | 0.664 | 5.89 | 0.786 | 6.45
NCI-H1838 (lung adenocarcinoma, adherent) | 0.903 | < 5.40 | 0.891 | < 5.70 | 0.922 | < 5.29 | 0.942 | < 5.00 | 0.983 | < 5.10 | 0.986 | < 6.00
NCI-H2081 (small cell lung carcinoma, suspension) | 0.986 | < 5.40 | 0.803 | 5.97 | 0.78 | 5.65 | 0.986 | < 5.00 | 0.984 | < 5.10 | 0.902 | < 6.00
AM-38 (glioma, semi-adherent) | 0.968 | < 5.40 | 0.863 | 5.75 | 0.639 | 6.11 | 0.988 | < 5.00 | 0.986 | < 5.10 | 0.963 | < 6.00
SF126 (glioma, adherent) | 0.907 | < 5.40 | 0.764 | 6.12 | 0.619 | 6.16 | 0.96 | < 5.00 | 0.762 | 5.52 | 0.738 | 6.50
SNU-C1 (large intestine, suspension) | 0.631 | 6.17 | 0.577 | 6.65 | 0.659 | 5.96 | 0.98 | < 5.00 | 0.977 | < 5.10 | 0.977 | < 6.00
P32-ISH (Burkitt lymphoma, suspension) | 0.746 | 6.00 | 0.534 | 6.82 | 0.336 | 6.90 | 0.961 | < 5.00 | 0.921 | 5.16 | 0.793 | 6.47
CW-2 (large intestine, adherent) | 0.954 | < 5.40 | 0.984 | < 5.70 | 0.6 | 6.21 | 0.989 | < 5.00 | 0.989 | < 5.10 | 0.948 | < 6.00
Farage (B-cell lymphoma, suspension) | 0.992 | < 5.40 | 0.396 | 7.16 | 0.427 | 6.68 | 0.993 | < 5.00 | 0.957 | < 5.10 | 0.67 | 6.77
NCI-H1869 (lung squamous cell carcinoma, adherent) | 0.902 | < 5.40 | 0.888 | < 5.70 | 0.692 | 5.92 | 0.984 | < 5.00 | 0.981 | < 5.10 | 0.762 | 6.40
NCI-H322M (lung adenocarcinoma, suspension) | 0.931 | < 5.40 | 0.983 | < 5.70 | 0.719 | 5.80 | 0.969 | < 5.00 | 0.987 | < 5.10 | 0.971 | < 6.00
GRANTA-519 (B-cell lymphoma, suspension) | – | – | 0.565 | 6.73 | 0.705 | 5.95 | 0.991 | < 5.00 | 0.977 | < 5.10 | 0.846 | 6.21
Calu-6 (lung adenocarcinoma, adherent) | – | – | 0.811 | 5.90 | 0.5 | 6.50 | 0.924 | < 5.00 | 0.982 | < 5.10 | 0.819 | 6.17
KURAMOCHI (ovary, adherent) | – | – | 0.889 | < 5.70 | 0.607 | 6.18 | 0.982 | < 5.00 | 0.924 | < 5.10 | 0.856 | < 6.00
AMO-1 (haematopoietic neoplasm, suspension) | – | – | 0.52 | 6.85 | 0.403 | 6.74 | 0.991 | < 5.00 | 0.95 | < 5.10 | 0.641 | 6.84
BB30-HNC (head and neck, adherent) | – | – | 0.663 | 6.46 | 0.677 | 6.01 | 0.982 | < 5.00 | 0.905 | < 5.10 | 0.742 | 6.52
MSTO-211H (mesothelioma, adherent) | – | – | 0.684 | 6.41 | 0.621 | 6.18 | 0.991 | < 5.00 | 0.971 | < 5.10 | 0.948 | < 6.00
